To fix the notation:
B1: chr2:120222042:120222143:-|CDS|ENSG00000226479|msi1|FALSE|bound_elsewhere (ssRNA)
RNA: GGGAGUUCUACAGUCCGACGAUCGAAAUUUUCCCAUUUUUAAGAGAAUAUGGGAACAUUUCAUAUGAUCUCCAUCACGAAGAUAGUGAAGAUGCUGAAGAAACAUCAGUUCCAGAAGCUCCGAAAAUUGCUCCAAUAUUUGGACAACAGAGGAUUGAGCAUCA
B2: chr20:4853394:4853498:-|3pUTR|ENSG00000089057|unk|FALSE|unique (ssRNA)
RNA: GGGAGUUCUACAGUCCGACGAUCUAUGACCAUGAGCUAAGUUGUUAUUUCUUUCAUUCAUAUCCCUGCUGAAAUAUUGGUACUAGCAACUUAAAGUUGGCAAGUCUCAUCUUCAGUAAUACGGAUGCCAUGGGAGUGGCCAGGCAACAGAGGAUUGAGCAUCA
B3: chr1:71070866:71070979:-|CDS|ENSG00000132485|unk|FALSE|bound_elsewhere (ssRNA)
RNA: GGGAGUUCUACAGUCCGACGAUCGAGGAUGAAGAUGACGCUGAUCUCUCAAAAUAUAAUCUUGAUGCCAGUGAAGAAGAAGAUAGUAAUAAAAAGAAAUCUAAUAGACGAAGUCGCUCAAAGUCUCGAUCUUCACAUUCACGACAACAGAGGAUUGAGCAUCA
B4: chr6:151351738:151351839:+|CDS|ENSG00000131016|msi1|FALSE|unique (ssRNA)
RNA: GGGAGUUCUACAGUCCGACGAUCGGUGGUGGGGCAGACCACCCCAGAAAGCUUUGAAAAAGCUCCUCAAGUCACAGAGAGCAUAGAGUCCAGUGAGCUUGUAACCACUUGUCAAGCCGAAACCUUAGCUGGGGUAAAAUCACACAACAGAGGAUUGAGCAUCA
B5: chr2:48720039:48721685:-|three_prime_utr|ENSG00000138039|control|control|control (ssRNA)
RNA: GGGAGUUCUACAGUCCGACGAUCGACUCUCUUUUAUAUCACUGGAUUCUAAAAAUUGGUAUCCUUGGUGCACUGCCUUUGUAUAGUACUUUUACUUUGUGUAGAUGUAAUUUUACAUGUAUAAUUGUCAUGUUACAAAGCUGUCAACAGAGGAUUGAGCAUCA
B6: ENSG00000173848:stop:overlap|stop_codon|ENSG00000173848|stop_codon|NA|stop_codon (ssRNA)
RNA: GGGAGUUCUACAGUCCGACGAUCGCAUCCGAAGAGCGAGGGACAAAGCCCUUUCUGGUGGCAAACGGAAAGAGACUUUGGUGUAGAGAAGGCUCUGUGUGUUAACUGAUGGGAGAGACUGUUUGUUUAUAAAUGUGUACAGUUCAACAGAGGAUUGAGCAUCA
B7: ENSG00000107863:be:win_2801|CDS|ENSG00000107863|bound_else_gene|NA|bound_elsewhere_windowed (ssRNA)
RNA: GGGAGUUCUACAGUCCGACGAUCAGGAAGGGUGGCUUCAUUUCCGACCCCUUGUCACCGAUAAGGGCAAGCGAGUUGGUGGAAGUAUUCGGCCAUGGAAACAGAUGUAUGUUGUCCUUCGGGGUCAUUCACUUUACCUGUACACAACAGAGGAUUGAGCAUCA
B8: chr10:73916565:73916770:+|3pUTR|ENSG00000122861|msi1|total|mutant (ssRNA)
RNA: GGGAGUUCUACAGUCCGACGAUCCUGGUUGUCAUUUUUGCAGCCGAGUCAUCUCCAUCAGCUGUAAGAAGAGACUGGGAAGACCGGCUCUGCACAGAUGGAUUUGCCUGUGCCACCCACCAGGGCGAACGACAACCGCUUUACCAACAGAGGAUUGAGCAUCA
B9: chr14:52327222:52327364:+|CDS|ENSG00000125384|unk|total|mutant (ssRNA)
RNA: GGGAGUUCUACAGUCCGACGAUCAUUUUUGCAUAUAUGAAUGAAACCUCUUCCCGAAAGGAAAAAUGGGACCUCCAAGCUCUCCGGUUUUUAUCAAUUAAUUCAAUAAUUGACCCUUGGGUCUUUGCCAUCCUCCGGCCUCCUCAACAGAGGAUUGAGCAUCA
B10: chr12:30629720:30629821:-|3pUTR|ENSG00000133704|msi1|FALSE|bound_elsewhere (ssRNA)
RNA: GGGAGUUCUACAGUCCGACGAUCCUUCUUGCUUUCUCACCUAUUUGAAUUUUCUCCUACCUAAUUUGUUUGUGUCUUUAUUAUAGCUCAGUUUGACUUCUCAAACUUUUCAAGGGUUGGGGCAGCUGCACUUUUAGGUUGCCUCAACAGAGGAUUGAGCAUCA
B11: chr10:98383567:98383797:-|three_prime_utr|ENSG00000119943|control|control|control (ssRNA)
RNA: GGGAGUUCUACAGUCCGACGAUCCCACCCCUGAAUUCCAAGUGCUCCAUUGGAUCAGCUUCCCAGGAAGUUCAGCUUCGGGUUAGUACAUAAGGCCACCACAAUGCUCAAGAAAUUAUUUUAGAAAAAACGUACGAGUUACAUCAACAGAGGAUUGAGCAUCA
B12: chr10:52765379:52768136:-|three_prime_utr|ENSG00000165471|control|control|control (ssRNA)
RNA: GGGAGUUCUACAGUCCGACGAUCUUGUUCCUUUUGUGGGCAAUCACUAAAAAUGAUCACUAACAGCACCAACAAAGCAAUAAUAGUAGUAGUAGUAGUUAGCAGCAGCAGUAGUAGUCAUGCUAAUUAUAUAAUAUUUUUAAUCAACAGAGGAUUGAGCAUCA
B13: chr1:111117940:111118053:-|3pUTR|ENSG00000156171|unk|FALSE|unique (ssRNA)
RNA: GGGAGUUCUACAGUCCGACGAUCAGGCUGACAGUAACACUGAUGAAUGCUGAUAAUCAGGAAACAUGAAAGAAGCCAUUUGAUAGAUUAUUCUAAAGGAUAUCAUCAAGAAGACUAUUAAAAACACCUAUGCCUAUACUUUUUCAACAGAGGAUUGAGCAUCA
B14: ENSG00000198589:be:win_5801|CDS|ENSG00000198589|bound_else_gene|NA|bound_elsewhere_windowed (ssRNA)
RNA: GGGAGUUCUACAGUCCGACGAUCUGUGUGAUCAUUUGAUAAGAGCAGCAAAAUAUCGUGACCACGUGACAGCAACUCAACUAAUCCAGAAAAUUAUCAACAUUCUCACAGACAAGCAUGGAGCCUGGGGAAAUUCUGCAGUGACAACAGAGGAUUGAGCAUCA

The other results are listed elsewhere or left out.

The target in this assay is MSI1 full-length (mouse, UniProt Q61474 1-362). The assay is described as follows: nsRBNS (natural sequence RNA bind-n-seq); RBNS binding buffer (assumed for nsRBNS): 25 mM Tris pH 7.5, 150 mM KCl, 3 mM MgCl2, 0.01% Triton X-100, 500 ug/ml BSA, 20 U/ml SUPERase-In, 4 C; UNK is unkempt and MSI1 is Musashi-1; names of the RNAs are library labels; protein concentration not given here; high values mean tight binding.
Chain of UniProt Q61474 (Q61474 whole entry): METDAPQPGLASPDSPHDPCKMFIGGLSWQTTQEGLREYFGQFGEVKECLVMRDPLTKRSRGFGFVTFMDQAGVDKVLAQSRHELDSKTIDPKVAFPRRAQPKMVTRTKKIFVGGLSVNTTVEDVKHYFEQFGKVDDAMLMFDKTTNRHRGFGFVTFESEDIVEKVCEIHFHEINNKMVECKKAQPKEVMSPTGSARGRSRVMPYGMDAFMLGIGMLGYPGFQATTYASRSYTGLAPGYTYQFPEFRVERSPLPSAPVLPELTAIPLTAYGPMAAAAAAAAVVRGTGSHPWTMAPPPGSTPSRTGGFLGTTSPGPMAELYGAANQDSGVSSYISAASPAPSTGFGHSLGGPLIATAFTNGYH
Turning to B1, the binding signal was 0.169 enrichment R. On to B2, for which the binding signal was 0.3 enrichment R. In turn, B3 showed a binding signal of 1.15 enrichment R. Next, B4: 0.59 enrichment R; B5: 0.346 enrichment R; B6: 0.651 enrichment R. The value for B7 was 0.329 enrichment R; that for B8 was 0.303 enrichment R. The value for B9 was 0.343 enrichment R; that for B10 was 1.79 enrichment R; that for B11 was 6.82 enrichment R. B12: the binding signal came to 83.7 enrichment R. Next, B13: 0.423 enrichment R; B14: 0.371 enrichment R.

The record behind these values is PMC12136788.
